In all, about 48,000 compounds went through this assay and about 450 (0.94%) were called active. Not shown: some 19% with an inconclusive outcome. Calls follow the shape of the dose curve; as a rule, active = well fitted inhibition curve with a large enough effect; inconclusive = small, poorly fitted or top-dose-only effect; inactive = no such curve, though single readings can be large or run the other way. Some of the results follow.
Experiment: Primary qHTS for Identification of Small Molecule Inhibitors of Huntingtin Promoter Activity; also: nearly all actives have a fitted effect of over 50% in size
Conditions: HEK293 HTT promoter firefly luciferase reporter (activity 0% = vehicle and -100% = no light), 24 h; series mostly up to 57.5 µM; activity change, negative = inhibition: at the top concentration
Outline: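 HEK293 Fluc reporter, 2,500 cells/well, 24 h pre-culture; cpds up to 57.5 uM final, 24 h 37 degrees C; Dual-Glo, 10 min RT; normalized vehicle = 0%, zero RLU = -100%.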
Potency is read from the fitted curve at half-maximal effect.

SMILES	activity change, negative = inhibition	Potency
COc1ccc2cc(CNc3ccc(OC)c(OC)c3)c(=O)n(CC(=O)Nc3ccccc3F)c2c1	inactive: -24.3%	
CCOC(=O)c1[nH]c(C)c(CCC(=O)Nc2cccc(SC)c2)c1C	inactive: -31.7%	
O=C(Nc1cc2ccc(O)cc2oc1=O)c1ccccc1	inactive: 22.5%	
CC(C)CCNC(=O)c1ccc2c(c1)N(Cc1ccccc1F)C(=O)c1ccccc1S2(=O)=O	inactive: -21.7%	
Fc1cccc(Cl)c1CNCCSc1nnnn1-c1ccccc1	inactive: -9.48%	
COc1cccc(C(=O)N(Cc2ccco2)c2ccccn2)c1	inactive: -13%	
O=C(CNC(=O)c1ccccc1F)OCc1cc(=O)n2nc(C3CCCCC3)sc2n1	inactive: 6.37%	
CCOc1cccc(C(=O)Nc2nnc(S(=O)(=O)N(C)c3ccc(C)cc3)s2)c1	inactive: -25.3%	
COc1ccc(S(=O)(=O)N(CC(=O)Nc2ccc(OC)cc2OC)c2ccc(Cl)cc2)cc1	inactive: -29.8%	
CCN1C(=O)c2ccccc2S(=O)c2ccc(C(=O)NCc3ccc(C)cc3)cc21 (configuration not stated)	inactive: -23.6%	
Cc1c(CNC2CCC(C)CC2)c(C(=O)O)c(C)n1Cc1ccccc1F (configuration not stated)	inactive: -12.5%	
COc1ccc(/C=C(/C#N)c2nc(-c3cc4ccccc4oc3=O)cs2)cc1	inactive: -2.19%	
CCC1CN(C(=O)Nc2ccccc2C(F)(F)F)c2ccccc2O1 (configuration not stated)	inactive: 0.199%	
CCOc1ccccc1C1C(C(N)=O)=C(C)Nc2nc(-c3ccccc3Cl)nn21 (configuration not stated)	inactive: 2.53%	
Cc1cccc(N2CC(c3nc4ccc(C)cc4[nH]3)CC2=O)c1 (configuration not stated)	inactive: -5.44%	
O=C(NC1(C(F)(F)F)N=C(c2ccccc2)N(C2CCCCC2)C1=O)c1ccc(F)cc1 (configuration not stated)	inactive: -5.09%	
Cc1cc(C)n(CCc2nc3c4ccccc4nc(SCc4ccc(Cl)cc4)n3n2)n1	inactive: 0%	
CCOc1ccc(NC(=O)CC2C(=O)N(c3ccc(C)cc3)C(=O)N2C2CCCCC2)cc1 (configuration not stated)	inactive: 12.7%	
Cn1ccc2cc(S(=O)(=O)N3CCCC(C(=O)NCc4ccc(F)cc4)C3)ccc21 (configuration not stated)	inactive: -30.6%	
C=CCSCC1Nc2cc(Cl)c(S(N)(=O)=O)cc2S(=O)(=O)N1 (configuration not stated)	inactive: -0.233%	
Cc1cc(O)c2c(O)c3c(O)cccc3cc2c1	inactive: -4.15%	
COC(=O)c1ccc(C2C=C(c3ccc(Cl)cc3)Nc3nc4ccccc4n32)cc1 (configuration not stated)	inactive: 22.7%	
CCOc1ccccc1-c1noc(CCCC(=O)Nc2cccc(C(F)(F)F)c2)n1	inactive: -32.2%	
N#Cc1cccc(NC(=O)C2CCN(c3cnccn3)CC2)c1	inactive: -22.7%	
CC(=O)Nc1ccc(NC(=O)c2cc3c(=O)n(Cc4cccnc4)ccc3nc2C)cc1	inactive: 1.79%	

SMILES	activity change, negative = inhibition	Potency
Cc1ccc(-n2nc3cc(C)c(NC(=O)COc4ccccc4)cc3n2)cc1	inactive: 24%	
Cc1ccc(C(=O)NCC(=O)OCc2cc(=O)n3c(C)csc3n2)cc1	inactive: -2.43%	
CCOC(=O)CCN(c1ccccc1)S(=O)(=O)c1cc(-c2cc(C)no2)ccc1C	inactive: -27.6%	
CCc1cc2c(cc3c(=O)n(CC(=O)NC4CCCCC4)nc(CC)n32)s1	inactive: 0.245%	
Cc1cc(C)c2oc(C(=O)Nc3c(C)n(C)n(-c4ccccc4)c3=O)cc(=O)c2c1	inactive: -3.78%	
CC(=O)N1CCc2c(sc3c2c(=O)n(-c2ccccc2C)c(=O)n3CC(=O)c2ccccc2)C1	inactive: -16.8%	
Cc1ccc(C)c(NC(=O)Cn2c(=O)n(-c3ccccc3C)c(=O)c3c2c2cc(C)ccc2n3C)c1	inactive: -15.8%	
CC(C)n1cc2c(c1-c1ccccc1Cl)c(=O)n(C)c(=O)n2C	inactive: -11.9%	
Cc1cccc(C(=O)Nc2cccc(OCc3cc(=O)n4cc(C)sc4n3)c2)c1	inactive: 12.3%	
Cc1ccc(-n2cc3c(c2-c2ccccc2Br)c(=O)n(C)c(=O)n3C)cc1N	inactive: -7.22%	
COc1ccccc1N1CCN(CCCNC(=O)c2nnc(Cc3c(F)cccc3Cl)o2)CC1	inactive: -25.6%	
COc1ccccc1C(=O)Nc1c(C(=O)N2CCN(c3ccc(F)cc3)CC2)oc2ccccc12	inactive: -11.8%	
CCN1CCN(CCCNC(=O)Cn2c(-c3cccs3)cc3ccccc32)CC1	inactive: -19.3%	
Cc1ccc2c(=O)cc(C(=O)N(Cc3ccccc3Cl)C3CCS(=O)(=O)C3)oc2c1 (configuration not stated)	inactive: 19%	
COc1ccc(-c2cc(-c3ccccc3)c(C#N)c(SCC(O)CS(=O)(=O)Cc3ccccc3)n2)cc1 (configuration not stated)	inactive: -25.8%	
CC(O)CNC(=O)C(=O)Nc1c2c(nn1-c1ccc(Cl)cc1)CSC2 (configuration not stated)	inactive: -21.6%	
COC(=O)c1ccc(NC(=O)CCc2c(C)nn(-c3ccc(N4CCOCC4)nn3)c2C)cc1	inactive: -5.26%	
O=C(Nc1ccc(F)cc1)c1ccc(Cn2nc(N3CCN(c4ccccc4)CC3)ccc2=O)o1		active: 14.1 µM
COc1ccccc1-c1nc2c(c(SCc3ccc(F)cc3Cl)n1)Cc1c(CO)cnc(C)c1O2	inactive: -4.84%	
CCc1cccc(NC(=O)Cn2c(=O)c(C(F)(F)F)nc3ccccc32)c1	inactive: -5.89%	
Cc1cccc(CSc2nc3cc(C(=O)NC4CCCC4)ccc3c(=O)n2Cc2ccccc2)c1	inactive: 5.26%	
NC(=O)c1cccc(N)c1	inactive: 6.47%	
Cc1cc(C)c2c(=O)cc(C(=O)Nc3nc4ccc(F)cc4s3)oc2c1	inactive: 17%	
Cc1ccc(C(=O)Oc2ccc(C(O)CNC(C)(C)C)cc2OC(=O)c2ccc(C)cc2)cc1 (configuration not stated)	inactive: 1.57%	
CCCCNC(=O)c1cccc(-n2cnc3cccnc32)c1C	inactive: -17.3%	

SMILES	activity change, negative = inhibition	Potency
Cc1cc(N(C)Cc2ccccc2)n2nc(-c3ccc(C(C)(C)C)cc3)nc2n1	inactive: -9.24%	
Cc1ccc(-n2nc(C(C)(C)C)cc2NC(=O)Nc2ccc(OCCN3CCOCC3)c3ccccc23)cc1	inactive	
COc1ccc(OCCn2nnc3sc4c(c3c2=O)CCC(C(C)(C)C)C4)cc1 (configuration not stated)	inactive: -2.63%	
CC1CCN(c2nc3c(-c4cccc(Br)c4)nnn3c3ccccc23)CC1	inactive: -13.2%	
CCc1ccc(-n2nc3cc(C)c(NC(=O)c4ccccc4C)cc3n2)cc1	inactive: 17.6%	
CCOc1ccc(-c2c(C)nn3c(C)c(C(=O)NCc4ccc(Cl)cc4)cnc23)cc1OCC	inactive: -16.9%	
CCC(NC(=O)Nc1cc(Cl)ccc1OC)c1c(-n2cccc2)sc2c1CCN(C)C2 (configuration not stated)	inactive: -24.3%	
CCCCCn1c(=O)[nH]c2cc(C(=O)NCCN(C)CCCC)ccc2c1=O	inactive: -6.17%	
N=c1n(CCO)c2ccccc2n1Cc1ccccc1F	inactive: -16%	
O=C(CSc1c2c(nc3ccc(Cl)cc13)CCCC2)NCc1ccccc1Cl	inactive: -5.52%	
COc1ccc(Br)c(C(=O)Nc2cc3c(cc2N2CCCC2)n(C)c(=O)c(=O)n3C)c1	inactive: -7.83%	
Cc1ccc(-c2cc(C(=O)OCC(=O)c3ccccc3)c3cccc(Cl)c3n2)cc1	inactive: -4.76%	
CCC(Sc1nc2ccccc2c2nc(CCn3c(C)nc4ccccc43)nn12)C(=O)Nc1ccc(F)cc1 (configuration not stated)	inactive: -21%	
CNC(=O)c1ccc(C)c(-n2c(C)cc(OCc3ccc(F)cc3F)c(Br)c2=O)c1	inactive: -7.91%	
Cc1ccc2oc(=O)c3cc(C(=O)N(Cc4ccccc4)C(C)C)sc3c2c1	inactive: -10.7%	
Cc1ccc(CN2c3ccccc3S(=O)(=O)c3ccccc32)cc1	inactive: -27%	
Cc1ccc(NC(=O)Cn2c(-c3ccc4c(c3)OCO4)cn(-c3ccccc3)c2=O)cc1	inactive: 19.8%	
Cc1ccc2c(c1)c1c(c(=O)n(Cc3ccccc3)c(=O)n1CC(=O)Nc1ccccc1C)n2C	inactive: -5.49%	
COc1ccc(-c2c3c(=O)n(C)c(=O)n(C)c3c3c(-c4ccc(C)cc4)nc4ccccc4n23)cc1	inactive: -5.87% [at 11.5 µM]	
Cc1ccc(CSc2nc(=O)c3c(n2C)NC(=O)CC3c2ccc(OC(C)C)cc2)cc1 (configuration not stated)	inactive: -19.8%	
CCN1CCC(N(Cc2cccc(OC)c2)C(=O)Nc2ccc(C)cc2Cl)CC1	inactive: -10.9%	
COc1cc(NC(=O)c2cnn(-c3cccc(F)c3)c2C2CCNCC2)cc(OC)c1OC	inactive: 0.368%	
CCc1nnc(NC(=O)CSCc2cc(=O)c3ccc(C)cc3[nH]2)s1	inactive: -0.168%	
Cc1cc(O)c(C(c2ccccc2Cl)N2CCN(c3ccccc3)CC2)c(=O)n1Cc1ccco1 (configuration not stated)	inactive: 2.87%	
Cc1ccc(C)c(NC(=O)CCCn2nc(C)c3sc4ccccc4c3c2=O)c1	inactive: -2%	

SMILES	activity change, negative = inhibition	Potency
COc1ccc(NC(=O)CN(Cc2ccccc2)S(=O)(=O)c2ccc3nc(C)sc3c2)cc1	inactive: -26.6%	
CCCN(CCC)CCNC(=O)c1cc2c(-c3ccccc3F)nn(C)c2s1	inactive: -10.4%	
CCN(CC)CCNC(=O)Cn1ncc2c([nH]c3ccccc32)c1=O	inactive: -8.16%	
CN1C2CCC1CC(OC(=O)C(CO)c1ccccc1)C2 (configuration not stated)	inactive: 1.5%	
CCCCN(CC)CCCNC(=O)c1cc2c(-c3ccc(OC)c(OC)c3)nn(C)c2s1	inactive: 10%	
CCOc1ccc(-c2cnc(NCc3ccc(OC)cc3OC)n2C)cc1	inactive: -7.4%	
COCCNC(=O)C1CCCN(S(=O)(=O)c2ccc3c(ccn3C)c2)C1 (configuration not stated)	inactive: -4.67%	
Cn1nc(C(=O)N2CCN(c3ccccc3F)CC2)c2c1-c1ccccc1SC2	inactive: -18.4%	
O=C1c2oc3ccc(F)cc3c(=O)c2C(c2cccc([N+](=O)[O-])c2)N1CCCN1CCOCC1 (configuration not stated)	inactive: -8.77%	
Cc1ccc(NC(=O)c2cccn2-c2nnc(N3CCCCC3)s2)cc1Cl	inactive: -18.2%	
Cc1ccc2nc(N(Cc3cccnc3)C(=O)C3COc4ccccc4O3)sc2c1 (configuration not stated)	inactive: 25%	
Cc1ccc(CSc2cn(CC(=O)N3CCCCC3)c3ccccc23)cc1	inactive: -6.44%	
COc1ccc(Cl)cc1NC(=O)CCC(=O)c1ccc(C)cc1	inactive: -18.6%	
CC(=O)c1ccc(NC(=O)c2ncn(-c3ccccc3)n2)cc1	inactive: 75%	
CCCCNC(=O)CCCn1c(=O)c2ccccc2n(Cc2ccccc2C)c1=O	inactive: -7.92%	
CCn1cc(C(=O)NCCc2ccccc2)c(=O)c2cc(S(=O)(=O)N(C)C3CCCCC3)ccc21	inactive: -5.73%	
CC(=O)c1[nH]c(C)c(C(=O)NCCc2ccc(C)cc2)c1C	inactive: -1.56%	
COc1ccc(-c2noc(-c3ccc(NCc4ccccc4OC)c([N+](=O)[O-])c3)n2)cc1	inactive: -7.31%	
Cc1ccc(C2=Nc3ccccc3N(CC(=O)Nc3cccc(F)c3)C(=O)C2)cc1C	inactive: 47.6%	
CC(=O)Nc1cccc(C(=O)NCc2ccc3c(c2)CCN3C(C)=O)c1	inactive: -21%	
CN(C)CCCNc1oc(/C=C/c2ccc(F)cc2)nc1C#N	inactive: -8.67%	
Cc1ccc(NC(=O)CCCn2c(=O)c3cccn3c3cccnc32)c(Cl)c1	inactive: 0.605%	

Source: PubChem BioAssay AID1508623 (National Center for Advancing Translational Sciences (NCATS), 2021)
